The full ranking holds about 33,000 sequences; the median of “E-score (-0.5 to 0.5)” is about -0.036, and the highest 2% start at about 0.37. Some of the results follow.
Biological target: T1, Yer064c (UniProt P40041)
T1 sequence: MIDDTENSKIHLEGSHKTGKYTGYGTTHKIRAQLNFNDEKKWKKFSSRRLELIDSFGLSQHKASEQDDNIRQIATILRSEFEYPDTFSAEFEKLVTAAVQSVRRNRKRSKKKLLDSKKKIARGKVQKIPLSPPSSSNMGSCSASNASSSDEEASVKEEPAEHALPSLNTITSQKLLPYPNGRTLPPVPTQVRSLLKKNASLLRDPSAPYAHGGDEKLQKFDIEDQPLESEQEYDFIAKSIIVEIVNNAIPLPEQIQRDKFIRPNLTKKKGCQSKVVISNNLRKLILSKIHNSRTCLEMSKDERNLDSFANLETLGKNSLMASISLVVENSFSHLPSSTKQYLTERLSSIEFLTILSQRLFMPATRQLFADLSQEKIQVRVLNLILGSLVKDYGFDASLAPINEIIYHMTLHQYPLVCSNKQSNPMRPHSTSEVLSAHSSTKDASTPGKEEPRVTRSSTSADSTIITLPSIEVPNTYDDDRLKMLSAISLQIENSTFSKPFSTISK
Test: PBM E-score (8-mer binding enrichment) (E-score (-0.5 to 0.5)); higher = stronger / more preferred TF binding; most listed sequences are background and not binding sites
Conditions: protein concentration: 200 nM; construct: GST-full length
Method in brief: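 The E-score, a modified Wilcoxon-Mann-Whitney statistic, was computed by the Universal PBM Analysis Suite for every ungapped eight-base word pooled with its reverse complement. Scans behind it were normalised with masliner after bound GST-tagged yeast transcription factors were detected with fluorescent anti-GST. The proteins, at about 100-200 nM, had been applied to universal all-10-mer Agilent arrays made double-stranded by primer extension.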

Point of comparison: AGGCATCC, “PBM E-score” value -0.114. Against it:
- GCCCTCAC — higher, -0.101
- CTCCGCAC — higher, -0.00401
- CATCTGCC — higher, -0.0814
- AACTGCTC — higher, -0.11
- CCTGGGGC — lower, -0.255
- ACATGAAT — higher, 0.175
- CGCTCTCC — lower, -0.184
- CCCCTCCA — lower, -0.166
- CTATAACA — higher, 0.0792
- ACGATGGG — higher, -0.0235
- AGATTCCC — higher, -0.0207
- ATACGCGG — lower, -0.259
- AGGGACTG — higher, 0.00864
- GCAAAAGA — higher, -0.0521
- ACGATTAG — higher, 0.152
- GTGTTTAA — higher, 0.176
- ATAGCCCG — lower, -0.289
- ATTCCTCC — higher, -0.0909
- AAGTGATT — higher, 0.394
- GGGTGAAC — higher, 0.122
- CTGTTCGA — higher, 0.0796
- CTAACGAA — higher, 0.165
- ATAGACCG — higher, -0.0671
- CTGTTGCC — lower, -0.24
- GACTTTTA — higher, 0.0908
- CTTCGCTC — lower, -0.125
- CAGCTGGG — lower, -0.136
- GGTTAATA — higher, 0.11
- GAAATCCA — lower, -0.168
- CTGCCGTC — lower, -0.151
- AGACTACC — higher, 0.354
- GCATAGCC — lower, -0.248
- ATCAAACC — higher, 0.149
- CGTGGATA — lower, -0.117
- AACGAGTA — higher, 0.171
- AGCACACT — higher, -0.113
- ACGTTCAG — lower, -0.206
- GCGGTACA — higher, -0.0623
- ATCCAGTC — higher, 0.16
- AAGCGGTC — higher, -0.0189
- CAATTGTA — lower, -0.187
- ATCAGATC — higher, -0.0452
- ACAACCCC — lower, -0.282
- GATGGTAC — lower, -0.161
- CCTTAGCC — higher, -0.021
- TCTAAAGA — higher, 0.0774
- ACGGGCAC — lower, -0.243
- ACTCCGGA — higher, 0.22
- AACGGATA — lower, -0.189
- CCAGTCAA — higher, 0.15
- AACCTTAT — lower, -0.276
- AATAGATC — higher, -0.0463
- CGCGAGGC — higher, -0.0971
- AATAATGA — higher, 0.195
- GAAAATGA — higher, 0.206
- ATGCGAAT — higher, 0.0322
- AGACCAAG — higher, 0.022
- ACCGGTAC — lower, -0.12
- GAATGCAA — lower, -0.194
- CGATAAGC — lower, -0.182
- TGGAGGAA — lower, -0.127
- AGATAGGG — higher, -0.011
- CGATTCTA — higher, 0.0229
- CTGCCAAA — higher, -0.0242
- CTACCGCC — lower, -0.259
- AGTCCACT — higher, 0.216
- AAGAAGGT — higher, -0.0694
- AAAAGTCC — higher, -0.0242
- AGAAGGCC — lower, -0.254
- AAGAACGG — lower, -0.199
- AAGTCATC — higher, 0.471
- ATTGCAAG — higher, 0.0515
- AGGCAGAA — higher, -0.00358
- CCCGAAAG — lower, -0.136
- CATGTGGC — higher, 0.151
- AAGGCTAT — higher, -0.0536
- AGATCACA — higher, -0.0293
- CCACTTAC — higher, -0.02
- CTAGCCGC — lower, -0.119
- AGAGATCC — lower, -0.34
- GGCGCGCC — higher, -0.0872
- ACTACAAT — higher, 0.226
- GGAAGTTA — higher, 0.0315
- ATTTCCCA — higher, 0.00335
- ATAACACG — lower, -0.159

— the supplement of paper PMC3334620
